The subject of this data set is ATP. Put plainly: switch fluorescence ratio, 500 uM ATP over buffer (Cy3 cluster intensity, sum of 5 cycles each) (fold (ratio)); higher = stronger signal-on switching upon ATP binding; sequences stand for … in TCGTCGGCAGCGTCAGATGTGTATAAGAGACAGTTTTTTTTTTTTTTTTTTTTTTTTT…TC. The settings on record: aptamer strand: ATP DNA aptamer (quencher-CACCTGGGGGAGTATTGCGGAGGAAGG + anchor), 100 nM annealed; ATP concentration: 500 uM; one replicate. A digest of the protocol: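 Cy3-labelled switching-strand clusters on a modified Illumina MiSeq flow-cell were annealed to 100 nM quencher-labelled ATP aptamer, imaged in selection buffer, then imaged after 15 min with 500 uM ATP at 22 °C. Five buffer/ATP cycles ran, with NaOH stripping and re-annealing between them. The fluorescence ratio is summed target-cycle over summed buffer-cycle Cy3 intensity per cluster, averaged per switch-domain sequence. Clusters outside 100-1000 RFU were excluded.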

Switch fluorescence ratio data for 67 sequences are collected here from the supplement of paper PMC10126150.

Sequences with one replicate were seen in a single cluster, so their values are uncertain.
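Also: ATP exposure 15 min at 22 °C before imaging.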

As to ATGCTAGTTT, the switch fluorescence ratio is 0.935. With GGATAAGGTG the figure was 0.999; with GGCATCATCG, 1.09; with CGGGCCCAGG, 2.12. With GACACATTTC the figure was 1.1; with GATCTATTAC, 1. With GCAGTAGCCT the figure was 1.01; with TTCTTGAGGA, 0.966; with GAGCTTGACT, 0.984.

For TAGAGTGGGA, the switch fluorescence ratio was determined as 1.05. With CCGAGGGGCA the figure was 1.74. On to ATCACGATAC, for which the switch fluorescence ratio stood at 1.88. Take GATGGTCAAA: the switch fluorescence ratio came out at 1.

Consider ACGTCTATAT, for which the switch fluorescence ratio is 1.08. With AGGTGGATCC the figure was 1; with TTAAAAAGCC, 0.974; with GGAATAGCAC, 1.03. For GCCTTAAGGA, the switch fluorescence ratio came to 1.01. Regarding AGCCAAAGA, the switch fluorescence ratio came to 0.941. AGCCGGAGTT: the switch fluorescence ratio amounted to 1.03.

Regarding ATTTGATGGC, the switch fluorescence ratio was found to be 0.995. With GAGGTTGGAA the figure was 0.982. In the case of TTGGGCCTT, the switch fluorescence ratio turned out to be 1.18. Next, TGTCGGCAAG: 0.979; CTCAGTCTCC: 1.27; TACTGTACTT: 1.43.

Take TACTGCGATT: the switch fluorescence ratio came out at 1.12. Next, GCTGTGCGGC: 1; GAAAGGGTCT: 1.01. Next, GCTAATCCTG: 1.03; CGATTGCTGA: 0.995. Consider ATGCTACTGG, for which the switch fluorescence ratio is 0.971.

For the sequence TCGTTGCCCT, the switch fluorescence ratio turned out to be 1.07. Next, GAACACGGGG: 0.934. GCATAAAATC: the switch fluorescence ratio was 0.954.

Regarding TCATGCCTCA, the switch fluorescence ratio stood at 1.01.

Take TAGCGGCCTA: the switch fluorescence ratio was 1.04.

In the case of GTTTACCCTG, the switch fluorescence ratio was 0.976. Next, AGAATATGCA: 1; GATAGTTAGA: 1.05. With CATATGGCAT the figure was 0.986; with TACATATAGA, 1.05. With TATTCCTTCT the figure was 1.04. For GTCCTCCGGG, the switch fluorescence ratio was 1.99. With CACAACACTA the figure was 1.25.

As for TGTCGTTAGA, the switch fluorescence ratio is 0.983.

With TTTGGAGAC, the switch fluorescence ratio turned out to be 1.13.

Regarding TATCAGTGTT, the switch fluorescence ratio came to 1.01.

With GTTACGTTTG, the switch fluorescence ratio was 1.02.

As for AACCCGGGTA, the switch fluorescence ratio was 0.961.

As for AGGCACAACA, the switch fluorescence ratio came out at 1.07. With ACGACAGGTA the figure was 1.02; with CAGGTACCAG, 1.03; with GGTCATCCGG, 1. Next, GGTGGGCGAC: 1.03; TTTGCAGGCC: 0.992; AGGCGCAGAC: 1.05. With GCAAACATGG, the switch fluorescence ratio is 1.03.

As to TACTGGCGGA, the switch fluorescence ratio came to 1.

For the sequence CATCTGGCCT, the switch fluorescence ratio came out at 1.54.

Take GAGAGGGACT: the switch fluorescence ratio is 0.994.

For GGTTGTACTT, the switch fluorescence ratio amounted to 0.971. With CGACTGGGGA the figure was 1.14. With AATAGATCGC, the switch fluorescence ratio was 1.05. With CCTGAACTGT the figure was 0.989. Next, AGTCTGTCGG: 0.992. With CGTATGGTCC the figure was 1.03.
